The values that follow come from patent publication US20250163048A1 (Tango Therapeutics, Inc., priority 2022, published 2025).

SMILES strings stand for the structures. pIC50: −log10 of the molar value.

The subject of assay [1] is HAP1 MTAP-deleted cell line. The assay can be described thus: SDMA in-cell western assay, HAP1 MTAP-deleted. To be noted: for Hap1 MTAP intact/deleted ratio: IC50 ratio between HAP1 MTAP-intact and HAP1 MTAP-deleted cell line, SDMA in-cell western.
The subject of another assay is MTAP-deleted cell line. In words: viability assay for the MTAP-deleted cell line. It is filed as cell-based. The conditions noted are these: Homo sapiens, HAP1, viability assay.
Assay [2] relates to HAP1 MTAP-intact cell line. In words: SDMA in-cell western assay, HAP1 MTAP-intact. The conditions noted are these: Homo sapiens, HAP1, read-out: Hap1 MTAP intact IC50, SDMA in-cell western, HAP1 MTAP-intact cell line.

For orientation: IC90 means the concentration at which the effect reaches the 90% level. A word on the pIC50: it is −log10 of the IC50, conventionally taken in molar units.

For the compound `[2H]C([2H])([2H])N1CCC(c2nc3cc([C@H]4CC[C@H](C)CN4C(=O)C(=O)Nc4cncc5cn[nH]c45)ccc3s2)CC1` (racemic) [Compound 119, 2-oxo-N-(1H-pyrazolo[4,3-c]pyridin-7-yl)-2-[rac-(5S)-5-methyl-2-[2-[1-(trideuteriomethyl)-4-piperidyl]-1,3-benzothiazol-5-yl]-1-piperidyl]acetamide], the IC90 in assay [1] (Homo sapiens, HAP1, read-out: Hap1 MTAP deleted IC90, SDMA in-cell western, HAP1 MTAP-deleted cell line) is less than 75 nM. The “Hap1 MTAP intact/deleted ratio” value in assay [1] is on record as “B (“B” indicates an IC50 ratio greater than or equal to 15 fold but lower than 30 fold)”. The compound further had a pIC50 in the assay with MTAP-deleted cell line of more than 7.00.

For `C[C@H]1CC[C@H](c2ccc3sc(CN(C)C)nc3c2)N(C(=O)C(=O)Nc2cncc3cn[nH]c23)C1` [Compound 29, 2-((2R,5S)-2-(2-((dimethylamino)methyl)benzo[d]thiazol-5-yl)-5-methylpiperidin-1-yl)-2-oxo-N-(1H-pyrazolo[4,3-c]pyridin-7-yl)acetamide], the pIC50 in assay [1] (Homo sapiens, HAP1, read-out: Hap1 MTAP deleted IC50, SDMA in-cell western, HAP1 MTAP-deleted cell line) is 7.30 to 8.30; with MTAP-deleted cell line, 6.00 to 7.00; in assay [2] it was less than 7.30. For the same compound, the “Hap1 MTAP intact/deleted ratio” value in assay [1] is “B (“B” indicates an IC50 ratio greater than or equal to 15 fold but lower than 30 fold)”.
